± gives the standard error. Variants at the floor of the assay are shown more often than the library holds them.
B1: glmS ribozyme (parent)
chain: AUAAAAGCGCCAGAACUACAGAAAUGUAGUUGACGAGGAGGAGGUUUAUCGAAUUUUCGGCGGAUGCCUCCAAA

Variants of: B1
Experiment: self-cleavage kobs at 2500 uM GlcN6P; higher = faster cleavage; RNA array
Settings: with glucosamine-6-phosphate
Summary of the method: (§1)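 Weighted Michaelis–Menten fits across concentrations supplied kcat and KM, based on kobs from one- or two-exponential decay fits to normalised per-tile medians. The data came from barcoded ribozyme variants transcribed in situ by E. coli RNA polymerase on sequenced MiSeq chips and tracked at 37 °C by a hybridised Cy3 probe. Glucosamine-6-phosphate (40 μM to 10 mM) in HEPES/KCl/Mg(OAc)2 buffer was flowed in.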

Row | Variant | self-cleavage kobs at 2500 uM GlcN6P
1 | G7U C58G A64C | < 1e-05 s⁻¹
2 | G7U G13C G44U C50G C67G | < 1e-05 s⁻¹
3 | G7U U31G A48U A52C C58U | < 1e-05 s⁻¹
4 | G7U U46A A48U | < 1e-05 s⁻¹
5 | C8A A33C G63A | < 1e-05 s⁻¹
6 | C8A A33U G38C U49A | < 1e-05 s⁻¹
7 | C8A C10U G29C U49C C61G C70A | < 1e-05 s⁻¹
8 | C8A C16U G43C C50U | < 1e-05 s⁻¹
9 | C8A U30A U57G G59U G62U | < 1e-05 s⁻¹
10 | C8G A15G U49A G59C U69A | < 1e-05 s⁻¹
11 | C8G A15U C58U | < 1e-05 s⁻¹
12 | C8G A15U G66A | < 1e-05 s⁻¹
13 | C8G C10A G43U U55A | < 1e-05 s⁻¹
14 | C8G C10G A39C | < 1e-05 s⁻¹
15 | C8G C10G C70G | < 1e-05 s⁻¹
16 | C8G G9U A14U A15U A64G C70U | < 1e-05 s⁻¹
17 | C8G G13U U31C G38A U57C U69C C71U | < 1e-05 s⁻¹
18 | C8G U46A C50U | < 1e-05 s⁻¹
19 | C8U A42G A53C | < 1e-05 s⁻¹
20 | C8U C10G U31C | < 1e-05 s⁻¹
21 | C8U C10U G29C U49A | < 1e-05 s⁻¹
22 | C8U G29C U30G G37A U47A G63U C70U | < 1e-05 s⁻¹
23 | C8U G38A C70A | < 1e-05 s⁻¹
24 | C8U G41U G62U | < 1e-05 s⁻¹
25 | G9A A42C G63A | < 1e-05 s⁻¹
26 | G9A C16G G38U G43C A48C C50A C70A | < 1e-05 s⁻¹
27 | G9A G13U C34G U57G C61U | < 1e-05 s⁻¹

Row | Variant | self-cleavage kobs at 2500 uM GlcN6P
28 | G9A U45A A52G G60A A64C | < 1e-05 s⁻¹
29 | G9C G13C C34A G62C A64G | < 1e-05 s⁻¹
30 | G9C G35U | < 1e-05 s⁻¹
31 | G9C G37U G40C U45A | < 1e-05 s⁻¹
32 | G9U A42C G62C C67G | < 1e-05 s⁻¹
33 | G9U C10G G66C | < 1e-05 s⁻¹
34 | G9U C16U G32A | < 1e-05 s⁻¹
35 | G9U G37C G63U C67U | < 1e-05 s⁻¹
36 | G9U G38C C67U C70G | < 1e-05 s⁻¹
37 | G9U U30C A33G A53G U56G | < 1e-05 s⁻¹
38 | G9U U31A G37A | < 1e-05 s⁻¹
39 | C10A A33U A42C | < 1e-05 s⁻¹
40 | C10A C34G U49C C50U | < 1e-05 s⁻¹
41 | C10A G44C A48C | < 1e-05 s⁻¹
42 | C10G A14U G35U G60C | < 1e-05 s⁻¹
43 | C10G C19A A39U U69C | < 1e-05 s⁻¹
44 | C10G G13U G60A | < 1e-05 s⁻¹
45 | C10G G41A | < 1e-05 s⁻¹
46 | C10U A15C G37A A48U | < 1e-05 s⁻¹
47 | C10U A15U A64U | < 1e-05 s⁻¹
48 | C10U G29U A52U | < 1e-05 s⁻¹
49 | C10U G32C G38U | < 1e-05 s⁻¹
50 | C10U G32U A33C G38C G59C U69G | < 1e-05 s⁻¹
51 | C10U G35C G38A A52C G62U | < 1e-05 s⁻¹
52 | C10U U31C A33U G43C | < 1e-05 s⁻¹
53 | C10U U47C C71A | < 1e-05 s⁻¹
54 | C11A A39G G44A | < 1e-05 s⁻¹

Row | Variant | self-cleavage kobs at 2500 uM GlcN6P
55 | C11A C16U A53U | 5.99e-05 ± 2.5e-05 s⁻¹
56 | C11A G21U A39C U46A U57C | < 1e-05 s⁻¹
57 | C11A G43U U54G | < 1e-05 s⁻¹
58 | C11A U46C G60U C71U | < 1e-05 s⁻¹
59 | C11G A14C G60A | < 1e-05 s⁻¹
60 | C11G A36G C71G | < 1e-05 s⁻¹
61 | C11G G35A G40A | < 1e-05 s⁻¹
62 | C11G U31C A33G C61U | < 1e-05 s⁻¹
63 | C11G U31C U56C | < 1e-05 s⁻¹
64 | C11G U46C C70U | < 1e-05 s⁻¹
65 | C11U A14C C16A G38U G40A C50G | 6.83e-05 ± 2.4e-05 s⁻¹
66 | C11U G35U C67A C70A | 5.48e-05 ± 2.6e-05 s⁻¹
67 | A12C A15C A64C | < 1e-05 s⁻¹
68 | A12C A39C G51U U55A | < 1e-05 s⁻¹
69 | A12C A48U A53C G63A C68A | < 1e-05 s⁻¹
70 | A12C U31C C61U C68A | < 1e-05 s⁻¹
71 | A12C U54G C71U | 0.00338 ± 0.0011 s⁻¹
72 | A12G A15C | 7.79e-05 ± 1e-05 s⁻¹
73 | A12G C16U A39C U57G | < 1e-05 s⁻¹
74 | A12G C16U U31G C34A G63C | < 1e-05 s⁻¹
75 | A12G G32U U45G G59U | < 1e-05 s⁻¹
76 | A12U G38U U49A | < 1e-05 s⁻¹
77 | A12U G44U C67U | 0.0167 ± 0.0049 s⁻¹
78 | A12U U47G G62C | < 1e-05 s⁻¹
79 | G13A A52C G60A | < 1e-05 s⁻¹
80 | G13A G40C G60A U65A | < 1e-05 s⁻¹

Variants of: B1
Experiment: self-cleavage kobs at 10000 uM GlcN6P; higher = faster cleavage; RNA array
Settings: with glucosamine-6-phosphate
Summary of the method: as §1

Row | Variant | self-cleavage kobs at 10000 uM GlcN6P
81 | C8G C10G C70G | < 1e-05 s⁻¹
82 | G9C G35U | < 1e-05 s⁻¹
83 | G9U C16U G32A | < 1e-05 s⁻¹
84 | C10A C34G U49C C50U | < 1e-05 s⁻¹
85 | C10U A15C G37A A48U | < 1e-05 s⁻¹
86 | A12G A15C | 0.000205 ± 2.2e-05 s⁻¹
